# Data from PMC11467389.
# B1: PDK1 (pyruvate dehydrogenase kinase 1): OGT siRNA (protein)
# parent chain: MRLARLLRGGTSVRPLCAVPCASRSLASASASGSGPASELGVPGQVDFYARFSPSPLSMKQFLDFGSVNACEKTSFMFLRQELPVRLANIMKEISLLPDNLLRTPSVQLVQSWYIQSLQELLDFKDKSAEDAKTIYEFTDTVIRIRNRHNDVIPTMAQGVTEYKESFGVDPVTSQNVQYFLDRFYMSRISIRMLLNQHSLLFGGKGSPSHRKHIGSINPNCDVVEVIKDGYENARRLCDLYYVNSPELELEELNAKSPGQTIQVVYVPSHLYHMVFELFKNAMRATMEHHADKGVYPPIQVHVTLGEEDLTVKMSDRGGGVPLRKIDRLFNYMYSTAPRPRVETSRAVPLAGFGYGLPISRLYAQYFQGDLKLYSLEGYGTDAVIYIKALSTESVERLPVYNKAAWKHYKANHEADDWCVPSREPKDMTTFRSS
# Experiment: Western blot of endogenous PDK1 in ST2 cells
# Settings: glycan lost; control: rhWnt3a alone
protein,measurement,value
B1,expression_or_secretion,decreases
